# Laboratory results reported in paper PMC7271317.
# Sequences of proteins named here, by UniProt entry; tags and fusion partners are left off.
# UniProt Q96RY7: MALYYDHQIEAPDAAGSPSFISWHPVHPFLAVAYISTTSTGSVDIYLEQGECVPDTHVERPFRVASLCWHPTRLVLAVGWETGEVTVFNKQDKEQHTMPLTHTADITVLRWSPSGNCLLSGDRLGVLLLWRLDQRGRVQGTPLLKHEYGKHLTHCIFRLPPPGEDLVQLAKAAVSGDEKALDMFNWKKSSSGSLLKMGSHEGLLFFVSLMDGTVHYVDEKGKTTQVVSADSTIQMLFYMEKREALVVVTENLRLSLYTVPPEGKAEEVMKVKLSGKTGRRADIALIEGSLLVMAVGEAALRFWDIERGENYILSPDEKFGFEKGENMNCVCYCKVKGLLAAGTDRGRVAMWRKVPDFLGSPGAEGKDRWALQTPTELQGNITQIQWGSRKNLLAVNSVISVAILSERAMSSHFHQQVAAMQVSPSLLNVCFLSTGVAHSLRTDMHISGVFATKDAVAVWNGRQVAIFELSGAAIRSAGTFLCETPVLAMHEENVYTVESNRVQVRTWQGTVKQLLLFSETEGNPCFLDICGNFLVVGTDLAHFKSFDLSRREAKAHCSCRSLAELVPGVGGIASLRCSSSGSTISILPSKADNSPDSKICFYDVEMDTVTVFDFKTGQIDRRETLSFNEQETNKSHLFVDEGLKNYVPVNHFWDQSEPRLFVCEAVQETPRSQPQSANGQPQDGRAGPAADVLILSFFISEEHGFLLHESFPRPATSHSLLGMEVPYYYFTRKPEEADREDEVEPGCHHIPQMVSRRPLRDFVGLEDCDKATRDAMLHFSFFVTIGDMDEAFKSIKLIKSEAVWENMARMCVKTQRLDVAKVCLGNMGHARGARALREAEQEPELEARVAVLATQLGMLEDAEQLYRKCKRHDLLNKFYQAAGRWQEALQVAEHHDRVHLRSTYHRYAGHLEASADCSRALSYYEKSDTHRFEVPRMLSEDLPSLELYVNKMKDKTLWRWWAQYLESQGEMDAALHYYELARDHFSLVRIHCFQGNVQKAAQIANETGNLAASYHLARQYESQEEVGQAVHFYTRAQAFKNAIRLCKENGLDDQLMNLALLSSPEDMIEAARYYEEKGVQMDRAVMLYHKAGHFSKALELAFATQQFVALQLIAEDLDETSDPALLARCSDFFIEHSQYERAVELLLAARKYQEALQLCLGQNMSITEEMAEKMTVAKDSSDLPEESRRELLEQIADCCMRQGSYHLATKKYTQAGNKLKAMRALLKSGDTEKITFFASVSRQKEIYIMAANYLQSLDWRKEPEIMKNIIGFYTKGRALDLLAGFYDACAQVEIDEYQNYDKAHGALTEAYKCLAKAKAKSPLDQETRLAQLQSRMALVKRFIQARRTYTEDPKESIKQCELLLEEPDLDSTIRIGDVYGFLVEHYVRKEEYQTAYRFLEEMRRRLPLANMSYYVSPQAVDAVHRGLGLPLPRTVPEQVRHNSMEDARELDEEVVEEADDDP
# No constants are given. Whether binding was seen depends on the method and setting. Binding seen in cells or lysates may run through a third protein. Some results given as binding are weak or reduced against the parent protein; the word gives no strength. For some of these results: Sequences can lack the tags named with a protein.
# T1: motor (Mot) domain of HSET fused to GFP (aa 145-673) (human) (UniProt Q9BW19)
# T1 sequence: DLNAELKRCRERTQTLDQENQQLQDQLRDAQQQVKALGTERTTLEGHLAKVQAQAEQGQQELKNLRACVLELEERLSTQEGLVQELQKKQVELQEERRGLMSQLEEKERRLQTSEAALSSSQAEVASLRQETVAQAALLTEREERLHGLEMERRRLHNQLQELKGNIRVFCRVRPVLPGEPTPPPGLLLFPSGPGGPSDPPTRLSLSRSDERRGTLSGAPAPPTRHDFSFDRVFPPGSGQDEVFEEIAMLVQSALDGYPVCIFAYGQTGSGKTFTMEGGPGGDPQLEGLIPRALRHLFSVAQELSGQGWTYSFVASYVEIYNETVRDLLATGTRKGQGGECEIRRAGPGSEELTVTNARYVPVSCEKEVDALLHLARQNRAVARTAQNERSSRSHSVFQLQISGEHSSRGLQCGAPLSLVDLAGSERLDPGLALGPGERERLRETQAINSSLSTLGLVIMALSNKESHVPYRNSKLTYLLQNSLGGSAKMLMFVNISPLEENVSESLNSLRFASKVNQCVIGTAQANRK
# T2: recombinant full-length (FL) GFP-HSET (human) (UniProt Q9BW19)
# T2 sequence: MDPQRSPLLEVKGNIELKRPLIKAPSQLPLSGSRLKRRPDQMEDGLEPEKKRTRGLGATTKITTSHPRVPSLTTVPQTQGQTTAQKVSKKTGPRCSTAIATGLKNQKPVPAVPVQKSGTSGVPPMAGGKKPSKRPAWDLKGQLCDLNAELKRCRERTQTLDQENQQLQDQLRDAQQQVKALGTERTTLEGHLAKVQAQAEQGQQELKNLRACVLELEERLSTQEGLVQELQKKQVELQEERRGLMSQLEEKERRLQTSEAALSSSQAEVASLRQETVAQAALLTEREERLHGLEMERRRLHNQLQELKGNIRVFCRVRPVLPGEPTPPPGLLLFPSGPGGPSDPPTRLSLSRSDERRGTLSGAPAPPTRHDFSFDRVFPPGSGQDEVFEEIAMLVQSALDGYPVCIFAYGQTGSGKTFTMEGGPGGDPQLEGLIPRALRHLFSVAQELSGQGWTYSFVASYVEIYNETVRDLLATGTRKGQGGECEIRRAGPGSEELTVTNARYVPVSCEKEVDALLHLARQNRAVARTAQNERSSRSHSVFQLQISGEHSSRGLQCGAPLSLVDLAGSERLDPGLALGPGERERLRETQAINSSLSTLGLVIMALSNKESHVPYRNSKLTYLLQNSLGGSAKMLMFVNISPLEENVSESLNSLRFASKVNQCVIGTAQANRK
# T3: HSET/KIFC1 (endogenous, MDA-MB-231) (human (endogenous in MDA-MB-231)) (UniProt Q9BW19)
# T3 sequence: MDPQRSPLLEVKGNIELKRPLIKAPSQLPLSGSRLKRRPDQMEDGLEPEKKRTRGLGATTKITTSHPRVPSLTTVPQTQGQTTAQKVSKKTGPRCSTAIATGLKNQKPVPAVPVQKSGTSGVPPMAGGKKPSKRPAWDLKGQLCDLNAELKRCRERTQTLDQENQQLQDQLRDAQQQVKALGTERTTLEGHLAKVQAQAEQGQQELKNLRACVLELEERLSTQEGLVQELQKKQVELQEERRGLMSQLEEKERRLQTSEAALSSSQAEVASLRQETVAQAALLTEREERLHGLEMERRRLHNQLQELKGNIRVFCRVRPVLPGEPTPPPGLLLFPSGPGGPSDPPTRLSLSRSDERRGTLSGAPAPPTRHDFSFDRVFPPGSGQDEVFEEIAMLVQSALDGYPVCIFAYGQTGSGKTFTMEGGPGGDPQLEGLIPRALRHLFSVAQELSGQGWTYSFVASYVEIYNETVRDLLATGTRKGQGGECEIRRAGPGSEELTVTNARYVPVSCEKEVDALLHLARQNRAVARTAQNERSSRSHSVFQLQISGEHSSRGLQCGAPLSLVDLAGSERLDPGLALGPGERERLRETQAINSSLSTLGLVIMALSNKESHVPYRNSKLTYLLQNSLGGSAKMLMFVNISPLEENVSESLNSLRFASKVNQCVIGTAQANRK
# Columns and labels:
# [1] = target: T1, motor (Mot) domain of HSET fused to GFP (aa 145-673) (human); assay: pull-down; purified GFP-HSET constructs on GFP-Trap beads incubated with 300 μl mitotic (nocodazole) MDA-MB-231 cell lysate (0.2% NP-40) for 1 h at RT, five washes, immunoblot; GFP-Trap beads alone as control; only the target purified
# [2] = target: T2, recombinant full-length (FL) GFP-HSET (human); assay: as above
# [3] = target: T3, HSET/KIFC1 (endogenous, MDA-MB-231) (human (endogenous in MDA-MB-231)); assay: co-IP; endogenous immunoprecipitation of HSET (KIFC1/HSET antibody, rabbit IgG as control) from mitotic (nocodazole) MDA-MB-231 cell lysate, overnight 4°C, protein G-PLUS agarose, washes with 0.2% NP-40, Western blot
Molecule,binding [1],binding [2],binding [3]
"IFT-A protein IFT140 (endogenous, MDA-MB-231) (from UniProt Q96RY7 1-1462)",no binding,–,–
"IFT88 (endogenous, MDA-MB-231) (protein, UniProt Q13099 1-824) MMQNVHLAPETDEDDLYSGYNDYNPIYDIEELENDAAFQQAVRTSHGRRPPITAKISSTAVTRPIATGYGSKTSLASSIGRPMTGAIQDGVTRPMTAVRAAGFTKAALRGSAFDPLSQSRGPASPLEAKKKDSPEEKIKQLEKEVNELVEESCIANSCGDLKLALEKAKDAGRKERVLVRQREQVTTPENINLDLTYSVLFNLASQYSVNEMYAEALNTYQVIVKNKMFSNAGILKMNMGNIYLKQRNYSKAIKFYRMALDQVPSVNKQMRIKIMQNIGVTFIQAGQYSDAINSYEHIMSMAPNLKAGYNLTICYFAIGDREKMKKAFQKLITVPLEIDEDKYISPSDDPHTNLVTEAIKNDHLRQMERERKAMAEKYIMTSAKLIAPVIETSFAAGYDWCVEVVKASQYVELANDLEINKAVTYLRQKDYNQAVEILKVLEKKDSRVKSAAATNLSALYYMGKDFAQASSYADIAVNSDRYNPAALTNKGNTVFANGDYEKAAEFYKEALRNDSSCTEALYNIGLTYEKLNRLDEALDCFLKLHAILRNSAEVLYQIANIYELMENPSQAIEWLMQVVSVIPTDPQVLSKLGELYDREGDKSQAFQYYYESYRYFPCNIEVIEWLGAYYIDTQFWEKAIQYFERASLIQPTQVKWQLMVASCFRRSGNYQKALDTYKDTHRKFPENVECLRFLVRLCTDLGLKDAQEYARKLKRLEKMKEIREQRIKSGRDGSGGSRGKREGSASGDSGQNYSASSKGERLSARLRALPGTNEPYESSSNKEIDASYVDPLGPQIERPKTAAKKRIDEDDFADEELGDDLLPE",binds,binds,binds
"IFT52 (endogenous, MDA-MB-231) (protein, UniProt Q9Y366 1-437) MEKELRSTILFNAYKKEIFTTNNGYKSMQKKLRSNWKIQSLKDEITSEKLNGVKLWITAGPREKFTAAEFEILKKYLDTGGDVFVMLGEGGESRFDTNINFLLEEYGIMVNNDAVVRNVYHKYFHPKEALVSSGVLNREISRAAGKAVPGIIDEESSGNNAQALTFVYPFGATLSVMKPAVAVLSTGSVCFPLNRPILAFYHSKNQGGKLAVLGSCHMFSDQYLDKEENSKIMDVVFQWLTTGDIHLNQIDAEDPEISDYMMLPYTATLSKRNRECLQESDEIPRDFTTLFDLSIFQLDTTSFHSVIEAHEQLNVKHEPLQLIQPQFETPLPTLQPAVFPPSFRELPPPPLELFDLDETFSSEKARLAQITNKCTEEDLEFYVRKCGDILGVTSKLPKDQQDAKHILEHVFFQVVEFKKLNQEHDIDTSETAFQNNF",binds,binds,–
"IFT27 (endogenous, MDA-MB-231) (protein, UniProt Q9BW83 1-186) MVKLAAKCILAGDPAVGKTALAQIFRSDGAHFQKSYTLTTGMDLVVKTVPVPDTGDSVELFIFDSAGKELFSEMLDKLWESPNVLCLVYDVTNEESFNNCSKWLEKARSQAPGISLPGVLVGNKTDLAGRRAVDSAEARAWALGQGLECFETSVKEMENFEAPFHCLAKQFHQLYREKVEVFRALA",no binding,–,–
